From patent US6478984B1, “Liquid for evaporative cooling apparatus” (Fortum Oyj, priority 1997, dated 2002)

Key:
[1] = Kinematic viscosity of the liquids at the concentration corresponding to a freezing point of −15° C.; assay type: physicochemical; conditions: concentration corresponding to freezing point −15° C.
[2] = Freezing point of aqueous solutions (temperature at which first crystals appear); assay type: physicochemical; conditions: aqueous solution, freezing point −15° C.
[3] = tested on: rats; conditions: oral; cited from earlier work

SMILES	Kinematic viscosity ([1]; 0° C.)	Kinematic viscosity ([1]; 20° C.)	Kinematic viscosity ([1]; −10° C.)	Kinematic viscosity ([1]; −15° C.)	Concentration corresponding to the freezing point of −15° C. [2]	LD50 [3]
CC(O)CO (stereo not shown) [Propylene glycol]	7.8 mm^2/s	3.3 mm^2/s	14.4 mm^2/s	20 mm^2/s	33 % by weight	–
CCO [Ethanol]	5.9 mm^2/s	2.5 mm^2/s	10.9 mm^2/s	15.8 mm^2/s	24.5 % by weight	–
OCCO [Ethylene glycol]	4.3 mm^2/s	2.1 mm^2/s	6.5 mm^2/s	8.2 mm^2/s	30.5 % by weight	–
C[N+](C)(C)CC(=O)O [Trimethyl glycine, trimethyl glycine]	–	–	–	–	–	11179 mg/kg
